Experimental data: PubChem BioAssay AID624418 (National Center for Advancing Translational Sciences (NCATS), 2012)
In all, about 410,000 compounds went through this assay and about 530 (0.13%) were called active. The shares of active, inactive and inconclusive entries below differ from those in the screen. Calls come from the whole dose curve; as a rule, active = well fitted inhibition curve with a large enough effect; inconclusive = small, poorly fitted or top-dose-only effect, or another doubt; inactive = no such curve, though single readings can be large or run the other way. Potencies of inconclusive entries are doubtful fits and often do not repeat.

Experiment: qHTS of GLP-1 Receptor Inverse Agonists: Cytotox Screen
Conditions: HEK293 cAMP-luciferase reporter cells, luminescence, 24 h; activity change, negative = inhibition: at 38.3 µM (top of the series) unless noted
How it was run: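 Luminescence readout: signal drop marks cytotoxicity. Plated cells grew 12 h at 37 °C, 5% CO2, received 23 nL compound for 24 h, then got luciferase reagent, read after 12 min at RT.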
% is set by controls: 0 for no effect and ±100 for the full control effect; potency is the fitted concentration of half-maximal effect.

| SMILES | Potency | activity change, negative = inhibition |
| --- | --- | --- |
| Cc1sc2c(c1C)C(c1ccc(C(C)(C)C)cc1)=NCC(=O)N2CC(=O)Nc1nccs1 | inconclusive: 11.2 µM [inhibitor, single point] |  |
| O=C(CCCN1C(=O)/C(=C\c2ccccc2)SC1=S)N1CCOCC1 | inconclusive: 11.2 µM [inhibitor, single point] |  |
| CN1CCN(c2ccc([N+](=O)[O-])c(N/N=C3\CN4CCC3CC4)c2)CC1 | inconclusive: 10 µM [inhibitor, partial curve, poor fit] |  |
| CCOc1cc(OCC)cc(C(=O)Nc2cccc(-c3nc4ccccc4[nH]3)c2)c1 | inconclusive: 14.1 µM [inhibitor, single point] |  |
| CCCCC(=O)NC(=S)Nc1nnn(CCC)n1 | inconclusive: 5.01 µM [inhibitor, full curve, poor fit] |  |
| Cc1ccc(NC(=O)c2nc(S(=O)(=O)Cc3ccc(F)cc3)ncc2Cl)cc1C | inconclusive: 28.2 µM [inhibitor, single point] |  |
| CC(C)C[C@@H](CN(N=O)[C@@H](Cc1ccccc1)CN(C)N=O)N(CCc1ccccc1)N=O | inconclusive: 10 µM [inhibitor, partial curve, poor fit] |  |
| CN(Cc1cn(-c2ccccc2)nc1-c1ccc2c(c1)OCO2)Cc1nccn1C | inconclusive: 10 µM [inhibitor, single point] |  |
| COc1ccc(C)c2sc(NC(=O)CCS(=O)(=O)c3ccccc3)nc12 | inconclusive: 28.2 µM [inhibitor, single point] |  |
| Cc1ccc(C(=O)Nc2cccc3[nH]c(C(F)(F)F)nc23)cc1 | inconclusive: 22.4 µM [inhibitor, single point] |  |
| COC(=O)C1=C(c2ccc(-c3ccccc3)c(F)c2)C[C@@H]2CC[C@H]1N2C(=O)NCc1cccc2ccccc12 |  | inactive: 1.42% |
| CCCCOc1ccccc1C1CC(=O)Nc2cc(C)c(C)cc21 (centres undefined) | inconclusive: 11.2 µM [inhibitor, single point] |  |
| O=C1CN(O)C(c2ccccc2)=c2cc(Cl)ccc2=N1 |  | inactive: 1.46% |
| CC(C)C[C@H]1CNC(=S)N1C[C@H]1CCCN1C[C@H](Cc1ccc(O)cc1)N1C[C@H](Cc2ccc(O)cc2)N(CC2CCCCCC2)C1=S | inconclusive: 28.2 µM [inhibitor, single point] |  |
| OC(c1ccccc1)(c1ccc(Cl)cc1)C1CN2CCC1CC2 (centres undefined) | inconclusive: 28.2 µM [inhibitor, single point] |  |
| COc1ccc(NC(=O)c2cc([N+](=O)[O-])ccc2N2CCNCC2)cc1 | inconclusive: 28.2 µM [inhibitor, partial curve, poor fit] |  |
| COc1ccc(NS(=O)(=O)c2cc(N=Nc3c(O)[nH]c(=O)[nH]c3=O)ccc2OC)cc1Br | inconclusive: 12.6 µM [inhibitor, single point] |  |
| CCOC(=O)C1(CCc2ccccc2)CCN(Cc2ccc3c(c2)OCCO3)CC1 | inconclusive: 28.2 µM [inhibitor, single point] |  |
| COc1ccccc1NC(=O)CSc1n[nH]c(-c2ccccn2)n1 | inconclusive: 11.2 µM [inhibitor, single point] |  |
| CCC(C)Nc1ccc(NC(C)CC)cc1 (centres undefined) | inconclusive: 10 µM [inhibitor, partial curve, poor fit] |  |
| CCOc1cc(CNCCO)cc(Br)c1OCc1ccc(Cl)cc1 | inconclusive: 28.2 µM [inhibitor, single point] |  |
| Cn1nc([N+](=O)[O-])nc1Sc1cccc2cccnc12 | inconclusive: 12.6 µM [inhibitor, single point] |  |
| CC1=CC(=Cc2sc3ccccc3[n+]2C)C=C(C)O1 | inconclusive: 1 µM [inhibitor, full curve, poor fit] |  |
| COc1cc2c3c(c1OC)Oc1ccc(cc1)C[C@H]1c4c(cc(OC)c(OC)c4Oc4ccc(cc4)C[C@@H]3N(C)CC2)CCN1C | inconclusive: 6.31 µM [inhibitor, partial curve, poor fit] |  |
| C/C(=N\N=C(N)N)c1ccccc1 | inconclusive: 28.2 µM [inhibitor, single point] |  |

| SMILES | Potency | activity change, negative = inhibition |
| --- | --- | --- |
| COc1cccc(NC(=O)c2cc(Cl)nnc2Cl)c1 | inconclusive: 7.08 µM [inhibitor, partial curve, poor fit] |  |
| Cc1nnc(SCc2nc3ccccc3c(=O)n2-c2ccccc2Cl)n1N | inconclusive: 11.2 µM [inhibitor, single point] |  |
| CCCc1cc(C(=O)Nc2c(C)nn(Cc3ccc(Cl)c(Cl)c3)c2C)no1 | inconclusive: 28.2 µM [inhibitor, single point] |  |
| CCOP(=O)(CCP(=O)(OCC)OCC)OCC.C[CH2][Sn]([Cl])([Cl])[CH2]C | active: 12.6 µM |  |
| COc1cc(/C=C2\CC(C(C)(C)C)C/C(=C\c3cc(OC)c(OC)c(OC)c3)C2=O)cc(OC)c1OC (centres undefined) | inconclusive: 14.1 µM [inhibitor, single point] |  |
| Cn1cccc1/C=C1\C(=O)NC(=O)N(Cc2ccco2)C1=O |  | inactive: -16.1% |
| CC(=O)NCC(=O)Nc1ccc(Br)cc1C(=O)c1ccccc1 | inconclusive: 22.4 µM [inhibitor, single point] |  |
| Cc1ccc(S(=O)(=O)N/N=C\c2cc3c(cc2Br)OCO3)cc1 | inconclusive: 28.2 µM [inhibitor, single point] |  |
| Cc1ccc(S(=O)(=O)C(NC(=O)c2ccccc2)=C(Cl)Cl)cc1 | inconclusive: 28.2 µM [inhibitor, single point] |  |
| COC(=O)C1=C(c2ccc(OC(F)(F)F)cc2)C[C@@H]2CC[C@H]1N2C(=O)NC1Cc2ccccc2C1 |  | inactive: -3.93% |
| OC(COCc1ccc(Cl)cc1)CN1CC=C(c2ccccc2)CC1 (centres undefined) | inconclusive: 20 µM [inhibitor, single point] |  |
| CSCCC(c1nnnn1Cc1ccccc1)N1CCC(n2c(=O)[nH]c3ccccc32)CC1 (centres undefined) | inconclusive: 4.47 µM [inhibitor, partial curve, poor fit] |  |
| COc1cc2c(cc1OC)/C(=C/C(=O)c1cccc([N+](=O)[O-])c1)NCC2 | inconclusive: 11.2 µM [inhibitor, single point] |  |
| Cc1cccc(Nc2nc(NCc3ccco3)c3ccccc3n2)c1 | inconclusive: 12.6 µM [inhibitor, partial curve, poor fit] |  |
| CC(C)(C)c1ccc(-n2nc(C#N)c(Cl)cc2=O)cc1 | inconclusive: 10 µM [inhibitor, partial curve, poor fit] |  |
| Cc1oc2c(c1C(=O)NCc1cccnc1)C(=O)c1ccccc1C2=O | inconclusive: 3.16 µM [inhibitor, full curve] |  |
| O=C(OCc1ccc([N+](=O)[O-])cc1)c1cc([N+](=O)[O-])ccc1N1CCOCC1 | inconclusive: 28.2 µM [inhibitor, single point] |  |
| COc1ccccc1N=Nc1c(O)[nH]c(=S)[nH]c1=O | inconclusive: 5.62 µM [inhibitor, partial curve] |  |
| C[C@]12CCC3C(CC[C@H]4C[C@H](O)CC[C@]34C)C1C[C@H](O)[C@H]2O (some centres undefined) |  | inactive: 0.905% |
| O=C(NCc1nc2ccccc2[nH]1)C1=C[C@@H](C2CCCCC2)C[C@@H](OCc2ccc(CO)cc2)O1 | inconclusive: 28.2 µM [inhibitor, single point] |  |
| CCCCc1nc2ccccc2c(=O)n1-c1cccc(OC)c1 |  | inactive: 0% |
| CCN(CC)c1ccc(/C=N/NC(=O)Cc2cccs2)c(O)c1 | inconclusive: 5.62 µM [inhibitor, full curve, poor fit] |  |
| O=C(Cn1ncc(Cl)c(Cl)c1=O)NCC1CCCCC1 | active: 10 µM |  |
| O=S(=O)(O)c1cc(O)c(N=Nc2ccc(O)cc2O)c2ccccc12 | inconclusive: 10 µM [inhibitor, partial curve] |  |
| CCCn1c(=N)n(CC(=O)c2ccc(Cl)c(Cl)c2)c2ccccc21 | inconclusive: 28.2 µM [inhibitor, single point] |  |

| SMILES | Potency | activity change, negative = inhibition |
| --- | --- | --- |
| CNc1cc(Cl)c2nonc2c1[N+](=O)[O-] | active: 7.94 µM |  |
| O=C(NCc1nnc(SCc2ccccc2)n1-c1ccc(F)cc1)C12CC3CC(CC(C3)C1)C2 | inconclusive: 10 µM [inhibitor, single point] |  |
| CCOc1ccccc1CNCCc1ccc2c(c1)OCO2 |  | inactive: 2.13% |
| N#Cc1c(N)n(C2OC(CO)C(O)C2O)c2ncnc(N)c12 (centres undefined) | inconclusive: 1 µM [inhibitor, full curve, poor fit] |  |
| O=C(N/N=C/c1cccs1)c1cccc(S(=O)(=O)Nc2ccc(Cl)cc2)c1 | inconclusive: 28.2 µM [inhibitor, single point] |  |
| C=CC[C@@H](CC/C=C/C=C/CC/C=C\[C@@H]1CSC([C@@H]2C[C@@H]2C)=N1)OC | inconclusive: 3.55 µM [inhibitor, full curve, poor fit] |  |
| Cc1ccc(-c2nnc(N3CCN(c4ccccn4)CC3)c3ccccc23)cc1 | active: 11.2 µM |  |
| Cc1ccc(CN2CCCN(Cc3ccc(Cl)cc3)S2(=O)=O)cc1 |  | inactive: 3.14% |
| CCCCCSc1cc(OC)c(CCN(C)C)cc1OC |  | inactive: -25% |
| C[C@]12CCC3C(CC[C@H]4C[C@@H](O)CC[C@]34C)C1CC[C@@H]2OC(=O)[C@H](N)CCCCN (some centres undefined) | inconclusive: 28.2 µM [inhibitor, single point] |  |
| CCCCn1nnnc1C(CCc1ccccc1)N1CCC(n2c(=O)[nH]c3ccccc32)CC1 (centres undefined) | inconclusive: 10 µM [inhibitor, partial curve, poor fit] |  |
| CN1CCN(c2ccc(CNC(=O)C3Cc4c(-c5ccccc5Oc5ccccc5)ccnc4O3)cc2)CC1 (centres undefined) | inconclusive: 10 µM [inhibitor, partial curve] |  |
| CCOc1ccccc1-n1c(O)c(C=Nc2ccc(N(CC)CC)cc2)c(=O)[nH]c1=O | inconclusive: 28.2 µM [inhibitor, single point] |  |
| CCC(c1nnnn1Cc1ccccc1)N1CCC(n2c(=O)[nH]c3ccccc32)CC1 (centres undefined) | inconclusive: 10 µM [inhibitor, partial curve] |  |
| CC(=O)N1CCc2c(sc(NC(=O)CCS(=O)(=O)c3ccccc3)c2C#N)C1 | inconclusive: 12.6 µM [inhibitor, single point] |  |
| CCOC(=O)/C(=C\c1ccc(Cl)cc1)c1nc2sc(C)c(C)c2c(=O)[nH]1 | inconclusive: 28.2 µM [inhibitor, single point] |  |
| Cc1nc2scc(-c3ccccc3)c2c(=O)n1N=C1C=CC(=O)C=C1 | inconclusive: 28.2 µM [inhibitor, single point] |  |
| C=CC(=O)NCNC(=O)C=C |  | inactive: 0.0398% |
| Cc1ccccc1N1C(=O)NC(=O)/C(=C/c2ccc(N3CCOCC3)o2)C1=O | inconclusive: 28.2 µM [inhibitor, single point] |  |
| Cc1nn(-c2ccccc2)cc1/C=N/NC(N)=S | inconclusive: 11.2 µM [inhibitor, partial curve, poor fit] |  |
| Cc1ccccc1C1=NCC(=O)N(CC(=O)NCc2ccco2)c2sc3c(c21)CCCC3 | inconclusive: 5.62 µM [inhibitor, partial curve] |  |
| C=CC(=O)Nc1ccc(Nc2ccnc(Nc3ccc(N4CCN(C)CC4)cc3)n2)cc1 | active: 10 µM |  |
| COc1cc2c(cc1O)C[C@H]1NCCc3cc4c(c-2c31)OCO4 | inconclusive: 10 µM [inhibitor, single point] |  |
| COc1ccc(S(=O)(=O)Nc2cc([N+](=O)[O-])ccc2OC)cc1 | inconclusive: 15.8 µM [inhibitor, single point] |  |
